{"source": "PubChem BioAssay AID504832", "about": "(National Center for Advancing Translational Sciences (NCATS), 2011)", "note": "Screen size: about 310,000 compounds; about 18,000 (5.8%) were called active. Inconclusive means that the source gave no clear call. Such entries were picked first, then a sample of the others. The call rests on the fitted dose curve; in most records, active means well fitted inhibition curve with a large enough effect; inconclusive means small, poorly fitted or top-dose-only effect, or another doubt; inactive means no such curve, though single readings can be large or run the other way. Potencies of inconclusive entries are left out as doubtful fits. Potency means the concentration at half of the fitted maximal effect; tags describe the fitted curve by direction and shape."}
{"assay": "Primary qHTS for delayed death inhibitors of the malarial parasite plastid, 48 hour incubation", "conditions": "P. falciparum luciferase growth in erythrocytes; series mostly up to 28.7 µM", "method_in_brief": "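In quantitative HTS format, infected erythrocytes bearing luciferase-reporter parasites were treated for a single generation at 37 C. Luminescence after adding detection reagent served as the growth measure.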"}
{"smiles": "Cc1cc(N2CCN(S(=O)(=O)c3ccccc3)CC2)c2ccccc2n1", "Potency": "inconclusive [inhibitor, full curve, poor fit]"}
{"smiles": "CCCCSc1nc(CCC)cc(=O)[nH]1", "Potency": "inactive"}
{"smiles": "COc1cccc(CNC(=O)CSCC(=O)Nc2cc(C)on2)c1", "Potency": "inconclusive [inhibitor, single point]"}
{"smiles": "CCOC(=O)c1c(NC(=S)NCc2ccccc2)sc2c1CCN(C(=O)OCC)C2", "Potency": "active: 11.7 µM"}
{"smiles": "CCOc1ccc(N2C(=O)CC(N(CCc3ccc(OC)c(OC)c3)C(=S)Nc3ccccc3)C2=O)cc1", "note": "(stereo not given)", "Potency": "active: 10.4 µM"}
{"smiles": "Cc1ccc(C(=O)NNC(=S)NC(=O)c2ccco2)cc1", "Potency": "inconclusive [inhibitor, single point]"}
{"smiles": "COc1ccc(S(=O)(=O)N2CCCC2CNC(=O)C(=O)NCc2ccc3c(c2)OCO3)cc1", "note": "(stereo not given)", "Potency": "inconclusive [inhibitor, single point]"}
{"smiles": "CCCCNC(=O)C1CCCN1S(=O)(=O)c1cccc2nsnc12", "note": "(stereo not given)", "Potency": "inconclusive [inhibitor, single point]"}
{"smiles": "COc1ccc(-c2csc(NC(=O)c3cc(C)oc3C)n2)cc1OC", "Potency": "inconclusive [inhibitor, partial curve, poor fit]"}
{"smiles": "O=C(Cc1nnc(NC(=O)Nc2ccccc2F)s1)NCc1ccccc1", "Potency": "inactive"}
{"smiles": "O=C1C2C3C=CC(C3)C2C(=O)N1CCN1CCN(S(=O)(=O)c2ccc3ccccc3c2)CC1", "note": "(stereo not given)", "Potency": "inactive"}
{"smiles": "Cc1c(N/C=C/C(=O)c2cccs2)c(=O)n(-c2ccccc2)n1C", "Potency": "inconclusive [inhibitor, single point]"}
{"smiles": "O=C(CN1CCN(c2ccc(O)cc2)CC1)Nc1ccccc1C(=O)NCCc1ccccc1", "Potency": "inconclusive [inhibitor, partial curve, poor fit]"}
{"smiles": "CCS(=O)(=O)N1CCN(Cc2nc3ccccc3c(=O)[nH]2)CC1", "Potency": "inactive"}
{"smiles": "COc1cccc(NC(=O)CN(C)C(=O)c2cc(-c3ccco3)nc3ccccc23)c1", "Potency": "inconclusive [inhibitor, partial curve]"}
{"smiles": "CCC1=C(OC(=O)N(CC)CC)N2C(=O)OC(=NCCOC)[C@]2(Cc2ccccc2)[C@H]2C1=CC[C@H]1C(=O)NC(=O)[C@H]12", "Potency": "active: 9.28 µM"}
{"smiles": "C/C(=N\\NC(=O)Cn1nc(C)c([N+](=O)[O-])c1C)c1ccco1", "Potency": "inactive"}
{"smiles": "CC(=O)c1cnc(-c2ccccn2)s1", "Potency": "active: 10.4 µM"}
{"smiles": "C=CCOc1ccc(Br)cc1CNC(C)(C)CO", "Potency": "inactive"}
{"smiles": "CCOC(=O)c1[nH]c2ccc(OCC)cc2c1CCCN1C(=O)c2ccccc2C1=O", "Potency": "inconclusive [inhibitor, single point]"}
{"smiles": "CNC[C@H](Cc1ccccc1)NC[C@@H](Cc1cccc2ccccc12)NCCc1ccc(C)cc1", "Potency": "active: 2.62 µM"}
{"smiles": "CSc1ccccc1NC(=O)c1cc(-c2ccc3c(c2)OCO3)on1", "Potency": "inactive"}
{"smiles": "Cn1c(=O)c([N+](=O)[O-])c(N2CCN(Cc3ccc4c(c3)OCO4)CC2)c2ccccc21", "Potency": "active: 11.7 µM"}
{"smiles": "CC1(C)CC(=O)C2=C(C1)OC(N)=C(C#N)C2c1ccc(OC(=O)N2CCOCC2)cc1", "note": "(stereo not given)", "Potency": "inconclusive [inhibitor, single point]"}
{"smiles": "O=C(COc1ccc([N+](=O)[O-])cc1)NNC(=O)c1cccs1", "Potency": "inactive"}
{"smiles": "COc1ccc(CNc2nc3c(c(=O)n(Cc4ccc(F)cc4)c(=O)n3C)n2C)cc1", "Potency": "active: 9.28 µM"}
{"smiles": "O=C(N[C@@H]1CCC(=O)N(CC[C@H](Oc2ccccc2)c2ccccc2)CC1)OCc1ccccc1", "Potency": "active: 0.415 µM"}
{"smiles": "CCOc1ccc2[nH]c3c(NCC(C)C)ncnc3c2c1", "Potency": "active: 2.33 µM"}
{"smiles": "Cc1ccc(OCCn2cnc3cc([N+](=O)[O-])ccc3c2=O)cc1", "Potency": "inconclusive [inhibitor, partial curve, poor fit]"}
{"smiles": "C=CCn1c(=O)/c(=C2/Sc3cc(OC)ccc3N2C)s/c1=C1\\C(=O)N(CC)C(=S)N1C", "Potency": "inactive"}
{"smiles": "CC1Cc2ccccc2N1C(=O)CN1C(=O)NC(C)(c2ccc3c(c2)OCCO3)C1=O", "note": "(stereo not given)", "Potency": "inconclusive [inhibitor, partial curve]"}
{"smiles": "CCOc1cc(C(=O)N2CCC(CC3CC(c4ccc(Cl)cc4)=NO3)(C(=O)NCC3CCCCC3)CC2)cc(OCC)c1OCC", "note": "(stereo not given)", "Potency": "active: 0.294 µM"}
{"smiles": "CCc1ccc(C(=O)NNC(=O)C2CCN(c3ncnc4sc(C)c(C)c34)CC2)cc1", "Potency": "inconclusive [inhibitor, single point]"}
{"smiles": "CCOC(=O)[C@H]1[C@H]2COc3ccccc3[C@@H]2N2C(=O)c3ccc(Cl)cc3NC(=O)[C@@]12C", "Potency": "inconclusive [inhibitor, single point]"}
{"smiles": "O=C(NC1CCCCC1)C(c1ccncc1)N(C(=O)c1csnn1)c1ccc(F)cc1", "note": "(stereo not given)", "Potency": "inactive"}
{"smiles": "O=C(CSc1nnc(Cc2ccc3c(c2)OCO3)n1C1CCCCC1)NC1CCCC1", "Potency": "inconclusive [inhibitor, single point]"}
{"smiles": "Cc1ccnc(NC(=O)c2ccc3c(c2)NC(=O)C(C)S3)c1", "note": "(stereo not given)", "Potency": "inactive"}
{"smiles": "Cc1c(O)ccc2c(O)c(NC(=O)c3ccc4c(c3)CCC(C)(C)O4)c(=O)oc12", "Potency": "inconclusive [inhibitor, single point]"}
{"smiles": "C=CCN1CC[C@]23CCCCC2[C@H]1Cc1ccc(O)cc13", "note": "(stereo not given in full)", "Potency": "inconclusive [inhibitor, single point]"}
{"smiles": "CC1CCc2c(sc3nn[nH]c(=O)c23)C1", "note": "(stereo not given)", "Potency": "inconclusive [inhibitor, single point]"}
{"smiles": "CN1CCN(C2CCCCC2NS(=O)(=O)c2ccccc2)CC1", "note": "(stereo not given)", "Potency": "inactive"}
{"smiles": "C[C@H]1[C@H](C)CC[C@]2(C)CC[C@]3(C)C(=CC[C@@H]4[C@@]5(C)CC[C@@H](O)[C@](C)(C(=O)O)[C@@H]5CC[C@]43C)[C@H]12", "Potency": "inconclusive [inhibitor, single point]"}
{"smiles": "O=C(CCSc1nccn1Cc1ccccc1)N1CCOCC1", "Potency": "inactive"}
{"smiles": "O=C(Nc1ccc(S(=O)(=O)N2CCCC2)cc1)c1cc(F)c(F)cc1Cl", "Potency": "inactive"}
{"smiles": "Cc1ccc2[nH]c(=O)c(CN(Cc3nnnn3Cc3ccccc3)C3CCCC3)cc2c1", "Potency": "active: 13.1 µM"}
{"smiles": "S=C1SCN(CC2CC2)CN1CC1CC1", "Potency": "inconclusive [inhibitor, single point]"}
{"smiles": "COc1ccc(NC(=O)CSc2nnc(NC(=O)c3ccc(S(=O)(=O)N4CCOCC4)cc3)s2)cc1", "Potency": "inactive"}
{"smiles": "c1ccc(C2CCC(N3CCNCC3)CC2)cc1", "note": "(stereo not given)", "Potency": "inactive"}
{"smiles": "COc1ccccc1CNc1cc(C)ccn1", "Potency": "inactive"}
{"smiles": "COc1ccccc1S(=O)(=O)NCc1ccc(C(=O)N(C)Cc2ccc(F)cc2)cc1", "Potency": "inconclusive [inhibitor, single point]"}
{"smiles": "CC1(C)CC(=O)C2=C(C1)c1c(ccc3ccccc13)NC2c1ccco1", "note": "(stereo not given)", "Potency": "inconclusive [inhibitor, partial curve, poor fit]"}
{"smiles": "CC[C@]1(O)CC[C@H]2[C@@H]3CCC4=CCCC[C@@H]4[C@H]3CC[C@@]21C", "Potency": "inconclusive [inhibitor, partial curve, poor fit]"}
{"smiles": "COc1ccc(-n2c(=S)[nH]c3cc(C(=O)Nc4cc(C(N)=O)ccc4OC)ccc3c2=O)c(OC)c1", "Potency": "inactive"}
{"smiles": "COc1ccc(Cc2nc3ccc(C(=O)NCC4CCOCC4)cc3o2)cc1OC", "Potency": "inactive"}
{"smiles": "COC(=O)c1ccnc(/C=N/O)c1", "Potency": "inconclusive [inhibitor, single point]"}
{"smiles": "C=CC[n+]1c(/C=C2\\C=Cc3cc(C)ccc3N2CC)ccc2ccccc21", "Potency": "active: 13.1 µM"}
{"smiles": "O=C(Cn1ncc2c([nH]c3ccccc32)c1=O)N1CCc2ccccc2C1", "Potency": "inconclusive [inhibitor, single point]"}
{"smiles": "COc1ccc(CC(=O)NCc2ccc(Cl)cc2)cc1S(=O)(=O)N1CCOCC1", "Potency": "inconclusive [inhibitor, single point]"}
{"smiles": "COc1ccc(C)cc1NC(=O)CN1C(=O)CSc2ccc(S(=O)(=O)N3CCCC3)cc21", "Potency": "inconclusive [inhibitor, partial curve]"}
{"smiles": "O=C(NCC(c1ccco1)N1CCN(c2ccccc2)CC1)c1ccco1", "note": "(stereo not given)", "Potency": "inconclusive [inhibitor, single point]"}
{"smiles": "Cc1ccccc1C(=O)NC(=S)NCC1CCCO1", "note": "(stereo not given)", "Potency": "inconclusive [inhibitor, full curve, poor fit]"}
{"smiles": "COc1ccc(-c2cc(C(=O)Nc3cc(C)n(Cc4ccc(Cl)cc4)n3)no2)cc1OC", "Potency": "inconclusive [inhibitor, full curve, poor fit]"}
{"smiles": "O=S(=O)(c1ccc2c(c1)OCCO2)N1CCC(n2nnc3cc(C(F)(F)F)ccc32)CC1", "Potency": "active: 13.1 µM"}
{"smiles": "Cn1c2c(c(=O)n(C)c1=O)C(C(F)(F)F)(C(F)(F)F)N=C(C1CCCCC1)N2", "Potency": "inactive"}
{"smiles": "Cc1ccc(O)c(N=CC2=C(O)c3ccccc3C2=O)c1", "Potency": "inconclusive [inhibitor, single point]"}
{"smiles": "COc1cccc(/C=N/NC(=O)c2ccoc2C)c1O", "Potency": "inconclusive [inhibitor, partial curve, poor fit]"}
{"smiles": "Cc1ccc2nc(C)c3c(c2c1)N(c1ccc(F)cc1)CC3", "Potency": "inconclusive [inhibitor, single point]"}
{"smiles": "COc1ccc(F)cc1C1=CC(=O)C[C@H](c2ccc3c(c2)OCO3)C1", "Potency": "inconclusive [inhibitor, single point]"}
{"smiles": "Cc1cc(/C=N/n2cnnc2)c(C)n1-c1cccc(C(=O)O)c1", "Potency": "inconclusive [inhibitor, full curve, poor fit]"}
{"smiles": "Nc1cc[n+](CC(=O)c2ccc3c(c2)OCCO3)cc1", "Potency": "active: 4.65 µM"}
